Source: the supplement of paper PMC10126150
Sequences with one replicate were seen in a single cluster, so their values are uncertain.

Test system: ATP
Test: switch fluorescence ratio, 500 uM ATP over buffer (Cy3 cluster intensity, sum of 5 cycles each) (fold (ratio)); higher = stronger signal-on switching upon ATP binding; sequences stand for … in TCGTCGGCAGCGTCAGATGTGTATAAGAGACAGTTTTTTTTTTTTTTTTTTTTTTTTT…TC
Conditions: aptamer strand: ATP DNA aptamer (quencher-CACCTGGGGGAGTATTGCGGAGGAAGG + anchor), 100 nM annealed; ATP concentration: 500 uM; one replicate
Outline: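 After annealing to 100 nM quencher-labelled ATP aptamer, Cy3-labelled switching-strand clusters on a modified Illumina MiSeq flow-cell were imaged in selection buffer. A second image followed after 15 min with 500 uM ATP at 22 °C, and five such buffer/ATP cycles were done, each separated by NaOH stripping and re-annealing. The fluorescence ratio, averaged per switch-domain sequence, is summed target-cycle over summed buffer-cycle Cy3 intensity per cluster, with clusters outside 100-1000 RFU excluded.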
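Further: ATP exposure 15 min at 22 °C before imaging.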

| Sequence | switch fluorescence ratio |
| --- | --- |
| TCTTATGGTA | 1.02 |
| TCTTCAACTC | 0.999 |
| TCTTCGCTGA | 1.35 |
| TCTTCGGCCA | 1.06 |
| TCTTCGTTC | 1.13 |
| TCTTGAAATG | 1.04 |
| TCTTGAATAC | 1.49 |
| TCTTGCATTA | 0.995 |
| TCTTGCCCAT | 1.01 |
| TCTTGGAC | 1 |
| TCTTGGAGTT | 1.04 |
| TCTTGGCCGG | 1.01 |
| TCTTGGTTC | 1.05 |
| TCTTGTTATG | 0.999 |
| TCTTGTTCCC | 1.07 |
| TCTTGTTGTA | 0.972 |
| TCTTGTTGTT | 0.961 |
| TCTTGTTTCC | 1.1 |
| TCTTTGATGT | 1.03 |
| TCTTTGCCAT | 1.05 |
| TCTTTGGGTA | 0.99 |
| TCTTTTACTT | 0.975 |
| TCTTTTCCGG | 0.971 |
| TCTTTTTACG | 1.04 |
| TGAAAATCCC | 1.02 |
| TGAAACGACT | 0.993 |

| Sequence | switch fluorescence ratio |
| --- | --- |
| TGAAAGGGTG | 1.07 |
| TGAAAGGTCG | 1.02 |
| TGAAATAATA | 0.978 |
| TGAAATATAC | 1.07 |
| TGAAATTTCC | 2.6 |
| TGAACGCACA | 2.15 |
| TGAACGGCCA | 0.992 |
| TGAACGGTTA | 1.03 |
| TGAAGACGAT | 1.06 |
| TGAAGAGGAC | 0.986 |
| TGAAGCAGCA | 1.15 |
| TGAAGGATTG | 0.954 |
| TGAAGGG | 0.983 |
| TGAAGGGATG | 0.955 |
| TGAAGGTAGA | 1.03 |
| TGAAGTACGA | 1.13 |
| TGAAGTACGG | 1.27 |
| TGAAGTAGAA | 0.973 |
| TGAAGTGCAT | 0.985 |
| TGAAGTTCCT | 0.974 |
| TGAATAGGTT | 1 |
| TGAATATAAC | 0.98 |
| TGAATATGGC | 1 |
| TGAATGTTGC | 0.998 |
| TGAATTCAGA | 0.974 |
| TGAATTTACG | 1.04 |

| Sequence | switch fluorescence ratio |
| --- | --- |
| TGAATTTT | 1.03 |
| TGACAACGGT | 1.02 |
| TGACAATACG | 1.17 |
| TGACAATTTG | 0.942 |
| TGACACTAG | 1.06 |
| TGACAGAGCG | 1.1 |
| TGACAGCGAT | 1.48 |
| TGACATTCTG | 1.05 |
| TGACCAAAGC | 1.45 |
| TGACCAGATG | 1.01 |
| TGACCCCGG | 0.993 |
| TGACCTAGGC | 0.991 |
| TGACCTC | 1.02 |
| TGACGACCAT | 1.07 |
| TGACGACTAT | 1.16 |
| TGACGATTTT | 1.02 |
| TGACGCAGG | 1.05 |
| TGACGGAGCT | 2.4 |
| TGACGGGCTG | 1.01 |
| TGACGGGGTC | 1.01 |
| TGACGTGGGG | 1 |
| TGACGTTTC | 0.994 |
| TGACTATA | 1.04 |
| TGACTATTAG | 0.989 |
| TGACTCCTCA | 1 |
| TGACTGATG | 1 |

| Sequence | switch fluorescence ratio |
| --- | --- |
| TGACTGGGT | 0.983 |
| TGACTTCTGG | 0.995 |
| TGACTTGCTG | 0.995 |
| TGAGACACTG | 1.12 |
| TGAGAGACAC | 1.04 |
| TGAGAGATGC | 1.21 |
| TGAGAGCTTA | 0.954 |
| TGAGAGGCAG | 0.954 |
| TGAGAGTCGA | 1.02 |
| TGAGCAAAAA | 1.02 |
| TGAGCAAATA | 1.64 |
| TGAGCGAGGA | 1.09 |
| TGAGCGCAGT | 1.07 |
| TGAGCGGTTA | 1 |
| TGAGCGTCTG | 1.02 |
| TGAGCTATAG | 1.39 |
| TGAGGAGGTA | 1.04 |
| TGAGGCAATG | 2.4 |
| TGAGGCCGCT | 1.02 |
| TGAGGCCTTT | 0.984 |
| TGAGGGGAT | 0.987 |
| TGAGGGTGAT | 0.936 |
| TGAGGTGATA | 1.03 |
| TGAGGTTCCA | 1.01 |
| TGAGTAGAGC | 1.02 |
| TGAGTCGGGG | 0.994 |

| Sequence | switch fluorescence ratio |
| --- | --- |
| TGAGTGTATA | 0.958 |
| TGAGTGTCAG | 0.961 |
| TGAGTTACGT | 0.992 |
| TGATAAGCGG | 1.01 |
| TGATAGTCAA | 0.966 |
| TGATATATGC | 1 |
| TGATATCACG | 1.04 |
| TGATATTTGA | 1.02 |
| TGATCAATG | 0.995 |
| TGATCACGTT | 1.01 |
| TGATCATTCC | 1.38 |
| TGATCCAAAT | 1.01 |
| TGATCCAGC | 1.07 |
| TGATCCTACC | 1.26 |
| TGATCGCAGT | 0.981 |
| TGATCTGACA | 1.01 |
| TGATCTGAGA | 0.963 |
| TGATGAAAAC | 0.979 |
| TGATGACTGG | 0.935 |
| TGATGCAAC | 1.41 |
| TGATGCGTCC | 1.03 |
| TGATGGAATT | 1 |
| TGATGGACAC | 1.02 |
| TGATGTCATA | 0.968 |
| TGATGTCTGA | 1.02 |
| TGATGTGATA | 1.01 |

| Sequence | switch fluorescence ratio |
| --- | --- |
| TGATTACCTT | 1.07 |
| TGATTCAAAC | 0.961 |
| TGATTCAAGA | 0.939 |
| TGATTCAAGG | 1 |
| TGATTCATGG | 0.981 |
| TGATTCCAGT | 1.02 |
| TGATTCGTAG | 1.05 |
| TGATTCTCAC | 0.989 |
| TGATTGAGTG | 0.984 |
| TGATTGCGGC | 1.04 |
| TGATTTCCAA | 0.983 |
| TGATTTTCTT | 0.977 |
| TGCAACGTGG | 0.994 |
| TGCAACTGAT | 1.02 |
| TGCAAGCAGG | 1.01 |
| TGCAATCCAT | 0.995 |
| TGCAATTGTT | 1.04 |
| TGCAATTTAT | 1.03 |
| TGCACCACAC | 1.39 |
| TGCACCATGG | 0.977 |
| TGCACGCCGG | 1.06 |
| TGCAGACACA | 1.04 |
| TGCAGCAAGA | 3.95 |
| TGCAGCGGAA | 1.05 |
| TGCAGGAACC | 1.06 |
| TGCAGTAGGG | 0.97 |

| Sequence | switch fluorescence ratio |
| --- | --- |
| TGCAGTCCTC | 1.05 |
| TGCAGTGAAC | 0.994 |
| TGCAGTGCTT | 1.03 |
| TGCAGTGGCG | 0.968 |
| TGCAGTTTTG | 0.981 |
| TGCATATGAA | 1.03 |
| TGCATATGCT | 0.979 |
| TGCATCATCT | 1.02 |
| TGCATCTTGC | 1.06 |
| TGCATGAGGT | 0.996 |
| TGCATGAGTA | 1.01 |
| TGCATGCACA | 0.991 |
| TGCATGCGGT | 0.988 |
| TGCATTGAAG | 0.953 |
| TGCCAACTCG | 1.02 |
| TGCCACCCTT | 1.11 |
| TGCCAGCAGC | 1.03 |
| TGCCAGCGCG | 0.998 |
| TGCCATGTAT | 0.959 |
| TGCCCCAAAG | 1 |
| TGCCCCATTC | 0.997 |
| TGCCCGGGTA | 1.04 |
| TGCCCGTCAG | 0.992 |
| TGCCCTCAC | 1.04 |
| TGCCCTCGCC | 1.43 |
| TGCCGATCAC | 0.976 |

| Sequence | switch fluorescence ratio |
| --- | --- |
| TGCCGATTAT | 0.993 |
| TGCCGCGCTT | 1.04 |
| TGCCGCGGGT | 0.961 |
| TGCCGCTGCA | 1.11 |
| TGCCGCTGGA | 1.02 |
| TGCCGGCATG | 0.948 |
| TGCCGGGAAG | 1.02 |
| TGCCGGTATT | 1.03 |
| TGCCGTAGGA | 1.04 |
| TGCCTAATAG | 1.04 |
| TGCCTAGAG | 1.01 |
| TGCCTAGGCA | 0.993 |
| TGCCTGGAAG | 0.995 |
| TGCGAAGGAC | 1.09 |
| TGCGACGTAG | 0.946 |
| TGCGAGAGCT | 1.07 |
| TGCGATACGC | 1.25 |
| TGCGATCAGA | 0.99 |
| TGCGATGCTG | 1.04 |
